# Results: the supplement of paper PMC8728848
# The other results are listed elsewhere or left out.
# B1: Siglec-7-SA-PE-180 (Homo sapiens), Q9Y286 (protein)
# chain: MLLLLLLPLLWGRERVEGQKSNRKDYSLTMQSSVTVQEGMCVHVRCSFSYPVDSQTDSDPVHGYWFRAGNDISWKAPVATNNPAWAVQEETRDRFHLLGDPQTKNCTLSIRDARMSDAGRYFFRMEKGNIKWNYKYDQLSVNVTALTHRPNILIPGTLESGCFQNLTCSVPWACEQGTPPMISWMGTSVSPLHPSTTRSSVLTLIPQPQHHGTSLTCQVTLPGAGVTTNRTIQLNVSYPPQNLTVTVFQGEGTASTALGNSSSLSVLEGQSLRLVCAVDSNPPARLSWTWRSLTLYPSQPSNPLVLELQVHLGDEGEFTCRAQNSLGSQHVSLNLSLQQEYTGKMRPVSGVLLGAVGGAGATALVFLSFCVIFIVVRSCRKKSARPAADVGDIGMKDANTIRGSASQGNLTESWADDNPRHHGLAAHSSGEEREIQYAPLSFHKGEPQDLSGQEATNNEYSEIKIPK
# Tests used:
# Experiment in all cases: glycan array binding signal (z-score within array); higher = stronger binding
# Conditions in all cases: glycan notation: IUPAC condensed, linker removed
# [1] = target: Fuc(a1-2)[GalNAc(a1-3)]Gal(b1-4)GlcNAc(b1-3)GalNAc
# Summary of the method: (§1)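 The binding signal is a Z-score computed within each array. Data were drawn from 3228 arrays in the Consortium for Functional Glycomics database, restricted to those with a known protein sequence. Scores were averaged over arrays of the same protein sequence at different concentrations or buffers, and over linkers, and negative values can be taken as non-binding.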
# [2] = target: Fuc(a1-2)[GalNAc(a1-3)]Gal(b1-4)GlcNAc(b1-3)[Fuc(a1-2)[GalNAc(a1-3)]Gal(b1-4)GlcNAc(b1-6)]GalNAc
# Summary of the method: as §1
# [3] = target: Fuc(a1-2)[GalNAc(a1-3)]Gal(b1-4)GlcNAc(b1-6)GalNAc
# Summary of the method: as §1
# [4] = target: Fuc(a1-2)[GalNAc(a1-3)]Gal(b1-4)[Fuc(a1-3)]GlcNAc
# Summary of the method: as §1
# [5] = target: Fuc(a1-2)[GalNAc(a1-3)]Gal(b1-4)[Fuc(a1-3)]GlcNAc(b1-3)GalNAc
# Summary of the method: as §1
# [6] = target: Fuc(a1-2)[GalNAc(a1-4)]Gal(b1-4)GlcNAc
# Summary of the method: as §1
# [7] = target: Fuc(a1-2)[GalNAc(b1-3)]Gal
# Summary of the method: as §1
# [8] = target: Fuc(a1-3)GlcNAc
# Summary of the method: as §1
# [9] = target: Fuc(a1-3)[Gal(b1-4)]Glc6S
# Summary of the method: as §1
# [10] = target: Fuc(a1-3)[Gal(b1-4)]GlcNAc
# Summary of the method: as §1
# [11] = target: Fuc(a1-3)[Gal(b1-4)]GlcNAc(b1-2)Man
# Summary of the method: as §1
# [12] = target: Fuc(a1-3)[Gal(b1-4)]GlcNAc(b1-2)Man(a1-3)[Fuc(a1-3)[Gal(b1-4)]GlcNAc(b1-2)Man(a1-6)]Man(b1-4)GlcNAc(b1-4)GlcNAc
# Summary of the method: as §1
# [13] = target: Fuc(a1-3)[Gal(b1-4)]GlcNAc(b1-2)Man(a1-3)[Fuc(a1-3)[Gal(b1-4)]GlcNAc(b1-2)Man(a1-6)]Man(b1-4)GlcNAc(b1-4)[Fuc(a1-6)]GlcNAc
# Summary of the method: as §1
# [14] = target: Fuc(a1-3)[Gal(b1-4)]GlcNAc(b1-3)Gal(b1-3)[Fuc(a1-4)]GlcNAc
# Summary of the method: as §1
# [15] = target: Fuc(a1-3)[Gal(b1-4)]GlcNAc(b1-3)Gal(b1-4)[Fuc(a1-3)]GlcNAc
# Summary of the method: as §1
# [16] = target: Fuc(a1-3)[Gal(b1-4)]GlcNAc(b1-3)Gal(b1-4)[Fuc(a1-3)]GlcNAc(b1-3)Gal(b1-4)[Fuc(a1-3)]GlcNAc
# Summary of the method: as §1
# [17] = target: Fuc(a1-3)[Gal(b1-4)]GlcNAc(b1-3)GalNAc
# Summary of the method: as §1
# [18] = target: Fuc(a1-3)[Gal(b1-4)]GlcNAc(b1-4)Gal(b1-4)[Fuc(a1-3)]GlcNAc
# Summary of the method: as §1
# [19] = target: Fuc(a1-3)[Gal(b1-4)]GlcNAc(b1-4)Gal(b1-4)[Fuc(a1-3)]GlcNAc(b1-4)Gal(b1-4)[Fuc(a1-3)]GlcNAc
# Summary of the method: as §1
# [20] = target: Fuc(a1-3)[Gal(b1-4)]GlcNAc(b1-6)GalNAc
# Summary of the method: as §1
# [21] = target: Fuc(a1-3)[Gal(b1-4)]GlcNAc(b1-6)[Gal(b1-3)GlcNAc(b1-3)]Gal(b1-4)Glc
# Summary of the method: as §1
# [22] = target: Fuc(a1-3)[Gal(b1-4)]GlcNAc(b1-6)[Neu5Ac(a2-3)Gal(b1-3)]GalNAc
# Summary of the method: as §1
# [23] = target: Fuc(a1-3)[Gal(b1-4)]GlcNAc6S
# Summary of the method: as §1
# [24] = target: Fuc(a1-3)[Gal3S(b1-4)]Glc
# Summary of the method: as §1
# [25] = target: Fuc(a1-3)[Gal3S(b1-4)]GlcNAc
# Summary of the method: as §1
# [26] = target: Fuc(a1-3)[Gal3S(b1-4)]GlcNAc6S
# Summary of the method: as §1
# [27] = target: Fuc(a1-3)[GalNAc(b1-4)]GlcNAc
# Summary of the method: as §1
# [28] = target: Fuc(a1-3)[GalNAc(b1-4)]GlcNAc6S
# Summary of the method: as §1
# [29] = target: Fuc(a1-3)[GalNAc3S(b1-4)]GlcNAc
# Summary of the method: as §1
# [30] = target: Fuc(a1-4)GlcNAc
# Summary of the method: as §1
# [31] = target: Fuc(b1-3)GlcNAc
# Summary of the method: as §1
# [32] = target: Gal(a1-2)Gal
# Summary of the method: as §1
# [33] = target: Gal(a1-3)Gal
# Summary of the method: as §1
# [34] = target: Gal(a1-3)Gal(b1-3)GlcNAc
# Summary of the method: as §1
# [35] = target: Gal(a1-3)Gal(b1-3)GlcNAc(b1-2)Man
# Summary of the method: as §1
# [36] = target: Gal(a1-3)Gal(b1-3)GlcNAc(b1-2)Man(a1-3)[Gal(a1-3)Gal(b1-3)GlcNAc(b1-2)Man(a1-6)]Man(b1-4)GlcNAc(b1-4)GlcNAc
# Summary of the method: as §1
# [37] = target: Gal(a1-3)Gal(b1-3)GlcNAc(b1-3)GalNAc
# Summary of the method: as §1
# [38] = target: Gal(a1-3)Gal(b1-3)GlcNAc(b1-6)GalNAc
# Summary of the method: as §1
# [39] = target: Gal(a1-3)Gal(b1-3)[Fuc(a1-4)]GlcNAc(b1-2)Man(a1-3)[Gal(a1-3)Gal(b1-3)[Fuc(a1-4)]GlcNAc(b1-2)Man(a1-6)]Man(b1-4)GlcNAc(b1-4)GlcNAc
# Summary of the method: as §1
# [40] = target: Gal(a1-3)Gal(b1-4)Glc
# Summary of the method: as §1
# [41] = target: Gal(a1-3)Gal(b1-4)GlcNAc
# Summary of the method: as §1
# [42] = target: Gal(a1-3)Gal(b1-4)GlcNAc(b1-2)Man
# Summary of the method: as §1
# [43] = target: Gal(a1-3)Gal(b1-4)GlcNAc(b1-2)Man(a1-3)[Gal(a1-3)Gal(b1-4)GlcNAc(b1-2)Man(a1-6)]Man(b1-4)GlcNAc(b1-4)GlcNAc
# Summary of the method: as §1
# [44] = target: Gal(a1-3)Gal(b1-4)GlcNAc(b1-3)GalNAc
# Summary of the method: as §1
# [45] = target: Gal(a1-3)Gal(b1-4)GlcNAc(b1-6)GalNAc
# Summary of the method: as §1
binder,measurement,setting,value
B1,glycan array binding signal (z-score),[1],-0.233
same,glycan array binding signal (z-score),[2],-0.555
same,glycan array binding signal (z-score),[3],-0.164
same,glycan array binding signal (z-score),[4],-0.148
same,glycan array binding signal (z-score),[5],10.7
same,glycan array binding signal (z-score),[6],-0.276
same,glycan array binding signal (z-score),[7],-0.267
same,glycan array binding signal (z-score),[8],-0.212
same,glycan array binding signal (z-score),[9],-0.097
same,glycan array binding signal (z-score),[10],0.023
same,glycan array binding signal (z-score),[11],-0.036
same,glycan array binding signal (z-score),[12],-0.013
same,glycan array binding signal (z-score),[13],-0.036
same,glycan array binding signal (z-score),[14],-0.326
same,glycan array binding signal (z-score),[15],-0.205
same,glycan array binding signal (z-score),[16],-0.524
same,glycan array binding signal (z-score),[17],0.299
same,glycan array binding signal (z-score),[18],-0.456
same,glycan array binding signal (z-score),[19],-0.484
same,glycan array binding signal (z-score),[20],-0.159
same,glycan array binding signal (z-score),[21],-0.172
same,glycan array binding signal (z-score),[22],0.032
same,glycan array binding signal (z-score),[23],-0.192
same,glycan array binding signal (z-score),[24],-0.086
same,glycan array binding signal (z-score),[25],-0.046
same,glycan array binding signal (z-score),[26],-0.186
same,glycan array binding signal (z-score),[27],-0.069
same,glycan array binding signal (z-score),[28],-0.045
same,glycan array binding signal (z-score),[29],-0.158
same,glycan array binding signal (z-score),[30],0.988
same,glycan array binding signal (z-score),[31],-0.145
same,glycan array binding signal (z-score),[32],-0.097
same,glycan array binding signal (z-score),[33],-0.332
same,glycan array binding signal (z-score),[34],-0.363
same,glycan array binding signal (z-score),[35],-0.201
same,glycan array binding signal (z-score),[36],-0.122
same,glycan array binding signal (z-score),[37],-0.49
same,glycan array binding signal (z-score),[38],-0.241
same,glycan array binding signal (z-score),[39],-0.1
same,glycan array binding signal (z-score),[40],-0.334
same,glycan array binding signal (z-score),[41],-0.394
same,glycan array binding signal (z-score),[42],-0.286
same,glycan array binding signal (z-score),[43],-0.053
same,glycan array binding signal (z-score),[44],-0.37
same,glycan array binding signal (z-score),[45],-0.106
